Data taken from the RNAGym collection of RNA variant scans (doi:10.7554/elife.90254).
The source gives no read counts; variants with many changes may rest on few reads.

B1: LINE1-mini (parent)
chain: GGCAGAGCUCAACACAGCGUGGCAAAGUGGCUGUGGCUAGACUGCC

Variants of: B1
Experiment: self-cleavage, relative activity (ratio to wild type); higher = more cleavage; in vitro, sequencing; the parent is a self-cleaving ribozyme

Variant	self-cleavage
C8A A24U C42U	0.16
C8A C10G G29C	0.02
C8A A16C A39U	0.05
G7U G30A C31U U32G G33U U34C U43A	0.24
C8A C18U C31G U34A A39G	0.03
C8A C13U C18G G33U C45U	0.06
G7U U9A U32C G44C	0.05
C8A C13U U28A G36U C42G	0.3
C8A A11U U20C C37G	0.01
C8A C23U C31G U38C	0.17
C8A A12G G22A C23G A26U	0.05
C8A A14U U20C U43A	0.14
C8A A25U G30U G44U	0.78
C8A C23A C46G	0.2
C8A A11U A16C A39G C45U	0.02
C8A C10A A24C A25C G33A	0.01
C8A G17A G19A G21A G35U	0.06
C8A C10U G19U A24U U38A A39G	0.01
G7U U9A G21C G30U C31A	0.04
C8A A16U C31G C42U	0.14
G7U U9C C10U C13U U20G G22U	0.01
C8A A26G C42U	0.09
C8A C15U G30A G40A	0.44
C8A A24C G27U G29U	0.33

Variant	self-cleavage
G7U U9A A26G	0.05
C8A C10G C15A G17A G22C G30U C31A C45G	0.02
C8A C10G C15G G21U G29U	0.01
C8A C10A G19A G33A A41G	0.01
G7U U9C C15A G29C	0.02
C8A C18A G21A C45G C46U	0.36
C8A C13U C23U	0.22
C8A C13G G29A C42G G44A	0.92
C8A C13G G17A U20A G35U C46U	0.05
C8A A24G A25G A26G G29U	0.01
C8A C15U G30C G33U	0.56
C8A A41C C46U	0.11
C8A A11U G27U G36U	0.01
C8A A14U G40C	0.23
C8A C10A C15A G21U	0.02
C8A C18G C42A	0.15
C8A C42G C45U	0.07
C8A A24U U38A U43A	0.09
C8A C18A G36A	0.29
C8A A14U G44C	0.45
C8A A12C G33U U43A	0.04
C8A A25U G35U C46U	0.04
G7U U9G A16G A24U G33A G44U	0.03
C8A G17A C42A C45A	0.1

Variant	self-cleavage
G7U G33U G40U A41U	0.05
C8A C18U G19U	0.06
C8A C23A C31G	0.24
C8A C13U U20G A25U G35U	0.26
C8A A14C G19A U34C G40A	0.03
G7U G33U G35A	0.02
C8A C15G C45U	0.23
C8A C23U A41U	0.63
C8A A16G A25G G33C	0.09
C8A A11C C13U	0.02
C8A A11C C13A	0.01
C8A G17U C37U U38C	0.03
C8A C13G C31G G36U C37U	0.22
G7U U9C U20A	0.01
C8A C10U U20C U32A G33C C42G	0.04
C8A A12C G21A G30C U32G	0.03
C8A G19C G30A	0.13
C8A C10U C15G C23A G40U C46A	0.03
G7U G36C C37A U38G	0.02
C8A C13U C31U U34G	0.42
C8A C18G G19A G30U C31A G36A C46A	0.05
C8A C23A G36U	0.11
C8A A24C C45A	0.11
C8A A16G G27A	1.03

Variant	self-cleavage
G7U U9C C18G A24U A41C	0.03
C8A C13G G19U C31G	0.1
C8A A11C U28A G33A A39G	0.02
C8A C42G U43G	0.16
G7U G33C G40U	0.02
C8A A11G G33U G40U A41C	0.02
G7U U9G A24C A26U	0.01
G7U U34A A39U G40A	0.09
C8A A12U G22C	0.05
C8A A16C G35A A41C	0.07
C8A C13U U38A	0.01
C8A G19A C23G G27U G36C A41U	0.09
G7U G30U G36U	0.02
C8A C10A A12C G36U U38G	0.01
C8A C10U A16U C18U	0.04
C8A C23G A24C	0.34
C8A A25G C42G	0.19
C8A C42A U43G	0.74
C8A C42A G44A	0.38
C8A C10U C23A U43G	0.01
C8A C13A G29U	0.13
C8A G19U A25U	0.15
C8A G17U A39U	0.52
C8A A25G U32G A41G	0.08

Variant	self-cleavage
G7U U9A A11U	0.06
C8A C18A U32C G35C U38G	0.03
C8A A11C A26G U32C U43G C45A	0.01
C8A A14U G22A G27U	0.13
C8A C15U A26G C42G C45G	0.15
C8A C13A G33U A39C	0.24
C8A G17C A26U G30U	0.55
C8A A26U G29C A41U	0.03
C8A A11C G30U G33U	0.02
C8A A16U U43A C46U	0.08
G7U U28A G35A U38C	0.02
C8A A24U C31G C37G	0.04
G7U G30C G35C	0.21
C8A C10G G17U C46U	0.02
C8A C18G U32A G33C C45A	0.12
C8A A16C A26G	0.06
C8A G19C U32C	0.23
C8A C13G C18A C23A C31G G44A	0.17
C8A A25G A26C	0.21
C8A C10U G33U	0.05
G7U G40C C42U	0.03
C8A C18U U28C U34C G40A	0.12
C8A A14U G19C G30C G35C G40A	0.25
C8A C10A C15G G22C G27C G40C	0.03

Variant	self-cleavage
C8A C15A A25G C31U	0.11
C8A C13U A16C G35A	0.22
C8A C23U G33A	0.03
C8A C15U G17U	0.06
C8A C13A G30A G40U	0.08
C8A A16U G33U	0.11
C8A C15A G19C C45A	0.47
C8A C10G C18A G40U G44U C46U	0.01
C8A C13U U20C G21C G27U C37G	0.12
C8A C15A C23U A25C G27A	0.2
C8A C15U G19U A24G G27U	0.32
C8A C18G G27C C31A C37A U43C	0.01
C8A A25U C46G	0.25
C8A C10U U32G U34A U43A	0.04
C8A G19A C42U C46A	0.08
C8A A11C C31G U32G	0.01
C8A C10G G21A	0.01
C8A C10G C37G C45A	0.01
C8A A26C G29A	0.53
C8A A24U G30C	0.13
G7U U20C G27U A39U G40C	0.09
C8A C10G U20G G29U	0.05
C8A C15U A26G	0.13
G7U U20A G29U	0.07

Variant	self-cleavage
C8A A14U C18A G21C A25U G35U	0.06
C8A A16U A39C	0.09
G7U G33A G40C C45U	0.08
C8A C23U A24U G33A	0.18
G7U U32A G36A	0.05
C8A A11C U43C C46U	0.01
G7U G35A G36A C42G G44U	0.05
C8A C23A G29U G35U C42A	0.01
C8A C13U C15A G30A	0.33
C8A A14C C31G	0.07
C8A C15U A39C G44U	0.18
C8A C13G U43A	0.18
C8A C10G A12U C15A C18G C37A U38C	0.01
C8A A26C U28G G36U	0.14
C8A A14G A39C	0.13
C8A C23A G36U G40U	0.08
C8A G19A G21A A24G G36A	0.67
G7U U9C A11G	0.01
G7U U9G U32A	0.04
C8A A11G A16G A26U U43A C45U	0
C8A C10G G17A A24U	0.02
C8A C13U C45G	0.22
C8A C18G C45G	0.1
